Assay results reported in a compilation of properties of binary mixtures (doi:10.1016/j.molliq.2020.113742).
Some of these densities may be calculated back from excess volumes.

Test: xn = mol fraction of the nth substance listed
Details: 101.3 kPa

CCCC[N+]1(C)CCCC1.F[P-](F)(F)(F)(F)F + CCCC[n+]1cccc(C)c1.F[P-](F)(F)(F)(F)F
mass density [kg/m3]
Details | x2 = 0.2 | x2 = 0.3 | x2 = 0.4 | x2 = 0.5 | x2 = 0.6 | x2 = 0.7 | x2 = 0.8 | x2 = 0.9
303.13 K | – | – | 1322 | – | – | – | – | –
308.15 K | – | – | – | 1320 | 1322 | – | – | –
313.15 K | – | 1311 | – | 1316 | 1318 | 1321 | – | –
318.15 K | – | 1307 | – | – | 1315 | 1317 | 1320 | –
323.15 K | – | 1304 | 1306 | 1308 | 1311 | 1313 | 1316 | 1318
328.15 K | 1297 | 1300 | – | 1304 | 1307 | – | 1312 | –
333.15 K | 1294 | 1296 | 1299 | 1301 | – | 1306 | 1308 | 1310
338.15 K | 1290 | 1292 | 1295 | – | 1299 | 1302 | 1304 | 1307
343.15 K | – | 1289 | – | 1293 | – | 1298 | 1300 | 1302
348.15 K | 1283 | 1285 | 1287 | 1289 | – | 1294 | 1296 | 1299
353.15 K | 1279 | 1281 | – | 1286 | 1288 | 1290 | 1293 | 1295
358.15 K | – | 1278 | – | 1282 | 1284 | 1287 | 1289 | 1291
363.15 K | 1272 | 1274 | 1276 | – | – | 1283 | 1285 | 1287

CCCC[N+]1(C)CCCCC1.F[P-](F)(F)(F)(F)F + CCCC[n+]1cccc(C)c1.F[P-](F)(F)(F)(F)F
mass density [kg/m3]
Details | x1 = 0.1 | x1 = 0.2 | x1 = 0.3 | x1 = 0.4 | x1 = 0.5 | x1 = 0.6 | x1 = 0.7 | x1 = 0.8
298.15 K | – | – | – | – | – | 1315 | – | –
303.15 K | – | – | – | – | 1315 | 1311 | – | –
308.15 K | – | – | – | 1315 | 1311 | 1307 | 1303 | –
313.15 K | – | – | – | 1311 | – | 1303 | 1299 | –
318.15 K | – | – | – | 1308 | – | 1300 | 1296 | 1292
323.15 K | 1317 | 1312 | 1308 | 1304 | – | 1296 | 1292 | 1288
328.15 K | – | 1308 | 1304 | 1300 | 1296 | 1292 | 1288 | 1285
333.15 K | 1308 | 1305 | 1300 | 1296 | 1292 | 1289 | – | 1281
338.15 K | 1305 | 1300 | 1296 | 1293 | 1289 | 1285 | – | 1277
343.15 K | – | – | 1293 | 1289 | 1285 | 1281 | 1278 | –
348.15 K | 1297 | – | – | 1285 | 1282 | 1278 | 1274 | 1270
353.15 K | 1293 | 1289 | – | 1281 | 1278 | 1274 | 1270 | 1267
358.15 K | 1289 | – | – | 1277 | 1274 | 1270 | 1267 | –
363.15 K | 1286 | 1282 | – | 1274 | 1270 | 1267 | 1263 | 1260
